{"source": "paper PMC4336329", "about": "(PLoS ONE, 2015)", "note": "About 14,000 (4.5%) of roughly 310,000 compounds showed an effect of 50% or more. Effects have a minus sign here. The list shows a part of the results.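 Further: peak tail current of the secondary pulse compared with the same well before compound.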", "data": [{"target": "human ether-à-go-go-related gene (hERG) potassium channel (human, UniProt Q12809)", "sequence (Q12809 whole entry, looked up)": "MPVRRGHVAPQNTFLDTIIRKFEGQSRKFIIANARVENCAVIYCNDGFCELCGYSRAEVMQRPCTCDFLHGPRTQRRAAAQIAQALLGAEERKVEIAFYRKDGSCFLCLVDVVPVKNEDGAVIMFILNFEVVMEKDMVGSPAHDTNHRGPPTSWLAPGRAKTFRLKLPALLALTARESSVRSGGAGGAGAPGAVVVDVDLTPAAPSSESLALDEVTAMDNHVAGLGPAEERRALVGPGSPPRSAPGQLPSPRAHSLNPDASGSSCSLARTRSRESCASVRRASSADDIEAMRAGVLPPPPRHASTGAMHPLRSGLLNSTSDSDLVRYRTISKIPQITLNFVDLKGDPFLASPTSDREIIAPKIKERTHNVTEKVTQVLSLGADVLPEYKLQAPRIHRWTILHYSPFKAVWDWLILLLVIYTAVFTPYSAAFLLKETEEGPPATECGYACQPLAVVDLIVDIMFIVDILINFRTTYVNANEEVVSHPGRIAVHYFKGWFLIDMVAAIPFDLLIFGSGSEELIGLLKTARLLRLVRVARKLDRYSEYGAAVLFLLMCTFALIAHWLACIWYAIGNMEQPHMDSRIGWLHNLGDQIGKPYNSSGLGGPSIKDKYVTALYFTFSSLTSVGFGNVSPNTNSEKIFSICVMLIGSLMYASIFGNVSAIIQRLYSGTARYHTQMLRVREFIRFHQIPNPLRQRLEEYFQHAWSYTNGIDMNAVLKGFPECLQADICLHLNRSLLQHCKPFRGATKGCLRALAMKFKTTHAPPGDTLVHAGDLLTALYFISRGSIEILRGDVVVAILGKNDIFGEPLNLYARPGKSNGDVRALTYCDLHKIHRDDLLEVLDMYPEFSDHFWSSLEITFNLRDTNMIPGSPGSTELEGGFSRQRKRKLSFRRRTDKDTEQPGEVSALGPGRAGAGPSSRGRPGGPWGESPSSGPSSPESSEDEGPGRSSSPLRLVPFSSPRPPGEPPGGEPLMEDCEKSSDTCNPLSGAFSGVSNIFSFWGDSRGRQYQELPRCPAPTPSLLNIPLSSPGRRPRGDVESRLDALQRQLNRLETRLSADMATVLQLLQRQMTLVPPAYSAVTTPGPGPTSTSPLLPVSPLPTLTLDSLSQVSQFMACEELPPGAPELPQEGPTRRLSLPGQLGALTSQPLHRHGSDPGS", "assay": "primary screen, population patch clamp on CHO cells stably expressing hERG", "units": {"hERG current change (%, negative = inhibition) at 10uM": "%"}, "values": [{"compound": "Cc1ccccc1C(=O)Nc1ccnn1C1CCN(CCCc2ccccc2)CC1", "hERG current change (%, negative = inhibition) at 10uM": -78.4}, {"compound": "O=C(N/N=C/c1cccc(Oc2ccccc2)c1)c1cccc(Br)c1", "hERG current change (%, negative = inhibition) at 10uM": -8.64}, {"compound": "COc1cc(C(C)=O)ccc1Oc1cnccn1", "hERG current change (%, negative = inhibition) at 10uM": 21.1}, {"compound": "CCN1CCN(C(=O)CN2C(=O)COc3ccc(S(=O)(=O)N4CCOCC4)cc32)CC1", "hERG current change (%, negative = inhibition) at 10uM": 6.02}, {"compound": "COc1cc2cc(Oc3ccc4ccc(=O)oc4c3)c(=O)oc2cc1OC(=O)/C=C/c1ccccc1", "hERG current change (%, negative = inhibition) at 10uM": -8.81}, {"compound": "CCN1C(=O)[C@H]2[C@@H](c3ccc(-c4ccc5c(c4)OCO5)cc3)N3CCC[C@@]3(C(=O)OC)[C@H]2C1=O.O=C(O)C(F)(F)F", "hERG current change (%, negative = inhibition) at 10uM": -8.25}, {"compound": "COc1ccc(Cn2c(CCC(=O)O)nc3cccnc32)cc1", "hERG current change (%, negative = inhibition) at 10uM": 30.3}, {"compound": "CCCCOc1ccc(C2CCC(C(C)=O)C(C)C2)cc1", "note": "(stereo not drawn)", "hERG current change (%, negative = inhibition) at 10uM": -6.68}, {"compound": "O=C(Nn1c(-c2ccc(F)cc2)nc2ccccc2c1=O)c1cccnc1", "hERG current change (%, negative = inhibition) at 10uM": 17.7}, {"compound": "Cc1cc(Cl)ccc1NC(=O)CN1C(=O)NC2(CCCC2)C1=O", "hERG current change (%, negative = inhibition) at 10uM": 6.03}, {"compound": "COC(=O)C1=C(c2ccc(F)cc2OCc2ccccc2)C[C@@H]2CC[C@H]1N2C(=O)NCc1ccc2c(c1)OCO2", "hERG current change (%, negative = inhibition) at 10uM": 1.56}, {"compound": "CCn1cc(C(=O)NCc2cccnc2)c2cc(OC)c(OC)cc2c1=O", "hERG current change (%, negative = inhibition) at 10uM": 1.88}, {"compound": "CNS(=O)(=O)c1cccc(C(=O)OCC(=O)c2ccc(S(=O)(=O)N3CCCCC3)cc2)c1", "hERG current change (%, negative = inhibition) at 10uM": 11.4}, {"compound": "O=C(Nc1cccc(F)c1)c1cccc2c1C(=O)N(C1CCCCC1)C2", "hERG current change (%, negative = inhibition) at 10uM": 12.2}, {"compound": "O=C1CCCN1CC(O)CS(=O)(=O)Cc1ccc(Cl)c(Cl)c1", "note": "(stereo not drawn)", "hERG current change (%, negative = inhibition) at 10uM": 5.83}, {"compound": "CCOc1cc(C2C(C#N)=C(N)Oc3n[nH]c(-c4ccncc4)c32)cc([N+](=O)[O-])c1O", "note": "(stereo not drawn)", "hERG current change (%, negative = inhibition) at 10uM": 22}, {"compound": "Cc1ccsc1C(=O)C1CCCN(Cc2cn(C)nc2C)C1", "note": "(stereo not drawn)", "hERG current change (%, negative = inhibition) at 10uM": -40.9}, {"compound": "COc1ccc(NS(=O)(=O)c2cccc(C(=O)NNC(=O)COc3ccccc3)c2)cc1", "hERG current change (%, negative = inhibition) at 10uM": -6.93}, {"compound": "CCC(Sc1nc(-c2ccccc2)c(C#N)c(=O)[nH]1)C(=O)Nc1nnc(C)s1", "note": "(stereo not drawn)", "hERG current change (%, negative = inhibition) at 10uM": 1.73}, {"compound": "O=C(Nc1nccs1)c1ccc(Br)o1", "hERG current change (%, negative = inhibition) at 10uM": -9.15}, {"compound": "CCOC(CNC(=O)C(=O)Nc1cc2c3c(c1)CCN3C(=O)CC2)OCC", "hERG current change (%, negative = inhibition) at 10uM": -10.2}, {"compound": "CCOc1ccc(-c2c(=O)n(OCc3ccccn3)c3ccccc3[n+]2[O-])cc1", "hERG current change (%, negative = inhibition) at 10uM": -3.78}, {"compound": "CCC(=O)N1CCN(c2cc3c(cc2F)c(=O)c(C(=O)O)cn3CC)CC1", "hERG current change (%, negative = inhibition) at 10uM": 19}, {"compound": "Cc1cc(OC(C)C(N)=O)nc(-c2ccccc2)n1", "note": "(stereo not drawn)", "hERG current change (%, negative = inhibition) at 10uM": 15.6}, {"compound": "CC(C)OCCCNC(=O)c1ccc2c(c1)ncn2C1CCCC1", "hERG current change (%, negative = inhibition) at 10uM": 0.0341}, {"compound": "O=S(=O)(NCc1ccccc1)NCc1ccccc1", "hERG current change (%, negative = inhibition) at 10uM": 24.6}, {"compound": "CC12CCC(C(=O)Nc3ccccc3Br)(C/C1=N\\O)C2(C)C", "note": "(stereo not drawn)", "hERG current change (%, negative = inhibition) at 10uM": 4.44}, {"compound": "COC(=O)c1ccc(CSC(=N)N)o1", "hERG current change (%, negative = inhibition) at 10uM": 10.9}, {"compound": "Cc1cccc(N2C(=O)CSC2c2cccnc2)c1", "note": "(stereo not drawn)", "hERG current change (%, negative = inhibition) at 10uM": 17}, {"compound": "COc1ccc(OC)c(NC(=O)CSC2=NCCS2)c1", "hERG current change (%, negative = inhibition) at 10uM": -5.75}, {"compound": "O=C(OC1CCOC1=O)c1ccc2ccccc2n1", "note": "(stereo not drawn)", "hERG current change (%, negative = inhibition) at 10uM": 15.6}, {"compound": "Cc1ccc2c(CN3CCOCC3)cc(=O)oc2c1", "hERG current change (%, negative = inhibition) at 10uM": -27.6}, {"compound": "COc1ccc(S(=O)(=O)N2CCN(C(=O)C3COc4ccccc4O3)CC2)cc1", "note": "(stereo not drawn)", "hERG current change (%, negative = inhibition) at 10uM": -11.7}, {"compound": "COc1ccc(N(CC(=O)Nc2ccc(C(N)=O)cc2)S(=O)(=O)c2ccc(C)c([N+](=O)[O-])c2)cc1", "hERG current change (%, negative = inhibition) at 10uM": 24}, {"compound": "Cc1nn(C)cc1C=NCCOCc1ccccc1", "hERG current change (%, negative = inhibition) at 10uM": 8.51}, {"compound": "COCC(=O)Nc1sc2c(c1C(=O)OC)CCCC2", "hERG current change (%, negative = inhibition) at 10uM": -11.7}, {"compound": "O=C1CC(N2CCN(c3ccccc3F)CC2)C(=O)N1c1ccc2c(c1)OCCO2", "note": "(stereo not drawn)", "hERG current change (%, negative = inhibition) at 10uM": 19.9}, {"compound": "Cc1ccc(OCc2cc(C(=O)N3CC4C[C@@H]5CC3C[C@H](C4)C5)no2)cc1C", "hERG current change (%, negative = inhibition) at 10uM": 15.7}, {"compound": "Nc1ncnc2nc[nH]c12", "hERG current change (%, negative = inhibition) at 10uM": 17.2}, {"compound": "COc1ccc(NC(=O)CS(=O)(=O)c2ccccc2)cc1", "hERG current change (%, negative = inhibition) at 10uM": 22.3}, {"compound": "O/N=C/c1cccn1-c1ccc(O)cc1", "hERG current change (%, negative = inhibition) at 10uM": -15.8}, {"compound": "CN(C1=NS(=O)(=O)c2ccccc21)c1ccc(OC(=O)c2ccccc2)cc1", "hERG current change (%, negative = inhibition) at 10uM": 18.1}, {"compound": "Cc1cc(Cl)ccc1OCC(=O)N/N=C1\\CCCc2ccccc21", "hERG current change (%, negative = inhibition) at 10uM": -0.309}, {"compound": "O=C(COc1ccccc1)N1CCN(c2nnc(-c3ccccc3)c3ccccc23)CC1", "hERG current change (%, negative = inhibition) at 10uM": -65.3}, {"compound": "CCCNC(=O)c1c(O)c2c([nH]c1=O)CCCC2", "hERG current change (%, negative = inhibition) at 10uM": 16.1}, {"compound": "CC(C)=CC(=O)OCC(=O)NC(=O)NC(C)(C)C", "hERG current change (%, negative = inhibition) at 10uM": 12.2}, {"compound": "CC1=Nn2c(nnc2-c2cc(C)[nH]n2)SC1", "hERG current change (%, negative = inhibition) at 10uM": -4.11}, {"compound": "O=C(Nc1ccc(F)cc1)NC1CCCCC1", "hERG current change (%, negative = inhibition) at 10uM": 5.47}, {"compound": "O=C(Cc1ccc(F)cc1)N1CCN(c2ccc(F)cc2)CC1", "hERG current change (%, negative = inhibition) at 10uM": 0.483}, {"compound": "COCCCNC(=O)Cc1ccccc1OC", "hERG current change (%, negative = inhibition) at 10uM": 1.79}, {"compound": "NS(=O)(=O)c1ccc(CNC(=O)c2ccc(S(=O)(=O)NCc3ccco3)cc2)cc1", "hERG current change (%, negative = inhibition) at 10uM": 2.78}, {"compound": "COc1ccc(C(C(=O)NC2CCCCC2)N(C(=O)Cc2c[nH]c3ccccc23)c2ccc(NC(C)=O)cc2)cc1OC", "note": "(stereo not drawn)", "hERG current change (%, negative = inhibition) at 10uM": -9.01}, {"compound": "C=C(C)CNC(=S)N/N=C1\\CCCCc2ccccc21", "hERG current change (%, negative = inhibition) at 10uM": -60.3}, {"compound": "CC(C)c1cccc(C2=CC(=O)C[C@H](c3ccc4c(c3)OCO4)C2)c1", "hERG current change (%, negative = inhibition) at 10uM": 9.93}, {"compound": "Cc1cccc(C(=O)NC(=S)Nc2c(C)n(C)n(-c3ccccc3)c2=O)c1", "hERG current change (%, negative = inhibition) at 10uM": 5.67}, {"compound": "CCCC(c1nnnn1Cc1ccc(F)cc1)N1CCN(C2CCCCC2)CC1.Cl", "note": "(stereo not drawn)", "hERG current change (%, negative = inhibition) at 10uM": -62.4}, {"compound": "NS(=O)(=O)c1cc(C(=O)OCC(=O)Nc2ccc3[nH]c(=O)[nH]c3c2)ccc1Cl", "hERG current change (%, negative = inhibition) at 10uM": 6.67}]}]}
